# Measurements taken from the supplement of paper PMC8728848.
# The other results are listed elsewhere or left out.
# B1: LYVE-1 (Homo sapiens), Q9Y5Y7 (protein)
# chain: MARCFSLVLLLTSIWTTRLLVQGSLRAEELSIQVSCRIMGITLVSKKANQQLNFTEAKEACRLLGLSLAGKDQVETALKASFETCSYGWVGDGFVVISRISPNPKCGKNGVGVLIWKVPVSRQFAAYCYNSSDTWTNSCIPEIITTKDPIFNTQTATQTTEFIVSDSTYSVASPYSTIPAPTTTPPAPASTSIPRRKKLICVTEVFMETSTMSTETEPFVENKAAFKNEAAGDPEVKFNWYVDGVEVHNAKPREEQYNSTYRVVSLVTVLHQDWLNGKEYKCKVSNKALPAPIEKTISKAKGQPREPQVYTLPPSRDELTKNQVSLTCLVKGFYPSDIAVEWESNGQPENNYKTTPPVLDSDGSFFLYSKLTVDKSRWQQGNVFSCSVMHEALHNHYTQRSLSLSPGK
# Legend:
# Assay in all cases: glycan array binding signal (z-score within array); higher = stronger binding
# Conditions in all cases: glycan notation: IUPAC condensed, linker removed
# [1] = target: Neu5Ac(a2-6)Gal(b1-4)GlcNAc(b1-2)Man(a1-3)[Gal(b1-4)GlcNAc(b1-2)Man(a1-6)]Man(b1-4)GlcNAc(b1-4)GlcNAc
# Method in brief: (§1)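 Arrays were curated from the Consortium for Functional Glycomics database, 3228 in total, and kept only where the protein sequence was available. Binding is expressed as a within-array Z-score. This score was averaged across arrays of the same protein sequence at different concentrations or buffers and across linkers, and negative values can be read as non-binding.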
# [2] = target: Neu5Ac(a2-6)Gal(b1-4)GlcNAc(b1-2)Man(a1-3)[GlcNAc(b1-2)Man(a1-6)]Man(b1-4)GlcNAc(b1-4)GlcNAc
# Method in brief: as §1
# [3] = target: Neu5Ac(a2-6)Gal(b1-4)GlcNAc(b1-2)Man(a1-3)[GlcNAc(b1-2)Man(b1-4)GlcNAc(b1-2)Man(a1-6)]Man(b1-4)GlcNAc(b1-4)GlcNAc
# Method in brief: as §1
# [4] = target: Neu5Ac(a2-6)Gal(b1-4)GlcNAc(b1-2)Man(a1-3)[Neu5Ac(a2-6)Gal(b1-4)GlcNAc(b1-2)Man(a1-6)]Man(b1-4)GlcNAc(b1-4)GlcNAc
# Method in brief: as §1
# [5] = target: Neu5Ac(a2-6)Gal(b1-4)GlcNAc(b1-2)Man(a1-6)[Gal(b1-4)GlcNAc(b1-2)Man(a1-3)]Man(b1-4)GlcNAc(b1-4)GlcNAc
# Method in brief: as §1
# [6] = target: Neu5Ac(a2-6)Gal(b1-4)GlcNAc(b1-2)Man(a1-6)[GlcNAc(b1-2)Man(a1-3)]Man(b1-4)GlcNAc(b1-4)GlcNAc
# Method in brief: as §1
# [7] = target: Neu5Ac(a2-6)Gal(b1-4)GlcNAc(b1-3)Gal(b1-4)GlcNAc
# Method in brief: as §1
# [8] = target: Neu5Ac(a2-6)Gal(b1-4)GlcNAc(b1-3)Gal(b1-4)[Fuc(a1-3)]GlcNAc(b1-3)Gal(b1-4)[Fuc(a1-3)]GlcNAc
# Method in brief: as §1
# [9] = target: Neu5Ac(a2-6)Gal(b1-4)GlcNAc6S
# Method in brief: as §1
# Neu5Ac(a2-6)GalNAc = target: Neu5Ac(a2-6)GalNAc
# Method in brief: as §1
# [10] = target: Neu5Ac(a2-6)GalNAc(b1-4)GlcNAc
# Method in brief: as §1
# Neu5Ac(a2-8)Neu5Ac = target: Neu5Ac(a2-8)Neu5Ac
# Method in brief: as §1
# [11] = target: Neu5Ac(a2-8)Neu5Ac(a2-3)Gal(b1-4)Glc
# Method in brief: as §1
# [12] = target: Neu5Ac(a2-8)Neu5Ac(a2-3)[GalNAc(b1-4)]Gal(b1-4)Glc
# Method in brief: as §1
# [13] = target: Neu5Ac(a2-8)Neu5Ac(a2-8)Neu5Ac
# Method in brief: as §1
# [14] = target: Neu5Ac(a2-8)Neu5Ac(a2-8)Neu5Ac(a2-3)Gal(b1-4)Glc
# Method in brief: as §1
# [15] = target: Neu5Ac(a2-8)Neu5Ac(a2-8)Neu5Ac(a2-3)[GalNAc(b1-4)]Gal(b1-4)Glc
# Method in brief: as §1
# [16] = target: Neu5Ac(a2-8)Neu5Ac(a2-8)Neu5Ac(a2-8)Neu5Ac(a2-3)[GalNAc(b1-4)]Gal(b1-4)Glc
# Method in brief: as §1
# [17] = target: Neu5Ac(b2-6)Gal(b1-4)GlcNAc
# Method in brief: as §1
# Neu5Ac(b2-6)GalNAc = target: Neu5Ac(b2-6)GalNAc
# Method in brief: as §1
# [18] = target: Neu5Ac9Ac(a2-6)Gal(b1-4)GlcNAc
# Method in brief: as §1
# [19] = target: Neu5Gc(a2-3)Gal(b1-3)GlcNAc
# Method in brief: as §1
# [20] = target: Neu5Gc(a2-3)Gal(b1-3)[Fuc(a1-4)]GlcNAc
# Method in brief: as §1
# Neu5Gc(a2-3)Gal(b1-4)Glc = target: Neu5Gc(a2-3)Gal(b1-4)Glc
# Method in brief: as §1
# [21] = target: Neu5Gc(a2-3)Gal(b1-4)GlcNAc
# Method in brief: as §1
# [22] = target: Neu5Gc(a2-3)Gal(b1-4)[Fuc(a1-3)]GlcNAc
# Method in brief: as §1
# [23] = target: Neu5Gc(a2-6)Gal(b1-4)GlcNAc
# Method in brief: as §1
# Neu5Gc(a2-6)GalNAc = target: Neu5Gc(a2-6)GalNAc
# Method in brief: as §1
# [24] = target: Neu5Gc(b2-6)Gal(b1-4)GlcNAc
# Method in brief: as §1
binder,measurement,setting,value
B1,glycan array binding signal (z-score),[1],-0.704
same,glycan array binding signal (z-score),[2],-0.596
same,glycan array binding signal (z-score),[3],0.502
same,glycan array binding signal (z-score),[4],0.084
same,glycan array binding signal (z-score),[5],-0.553
same,glycan array binding signal (z-score),[6],-0.436
same,glycan array binding signal (z-score),[7],0.979
same,glycan array binding signal (z-score),[8],-0.243
same,glycan array binding signal (z-score),[9],-0.237
same,glycan array binding signal (z-score),Neu5Ac(a2-6)GalNAc,0.052
same,glycan array binding signal (z-score),[10],2.4
same,glycan array binding signal (z-score),Neu5Ac(a2-8)Neu5Ac,-0.731
same,glycan array binding signal (z-score),[11],1.68
same,glycan array binding signal (z-score),[12],-0.59
same,glycan array binding signal (z-score),[13],-0.429
same,glycan array binding signal (z-score),[14],-0.143
same,glycan array binding signal (z-score),[15],-0.129
same,glycan array binding signal (z-score),[16],0.321
same,glycan array binding signal (z-score),[17],0.625
same,glycan array binding signal (z-score),Neu5Ac(b2-6)GalNAc,-0.024
same,glycan array binding signal (z-score),[18],0.046
same,glycan array binding signal (z-score),[19],-0.595
same,glycan array binding signal (z-score),[20],-0.356
same,glycan array binding signal (z-score),Neu5Gc(a2-3)Gal(b1-4)Glc,-0.428
same,glycan array binding signal (z-score),[21],0.032
same,glycan array binding signal (z-score),[22],2.16
same,glycan array binding signal (z-score),[23],0.13
same,glycan array binding signal (z-score),Neu5Gc(a2-6)GalNAc,0.62
same,glycan array binding signal (z-score),[24],-0.092
